The campaign covered roughly 360,000 compounds. About 6,000 (1.7%) were called active. Inconclusive results, whose numbers are uncertain, are shown with a selection of clear calls. Calls follow the shape of the dose curve; as a rule, active = well fitted cell-killing curve with a large enough effect; inconclusive = small, poorly fitted or top-dose-only effect, or effect the other way; inactive = flat fitted curve, though single readings scatter. Potencies of inconclusive entries are left out as doubtful fits.
assay: qHTS for induction of synthetic lethality in tumor cells producing 2HG: qHTS for the HT-1080-NT fibrosarcoma cell line; conditions: HT-1080-NT fibrosarcoma viability, CellTiter-Glo ATP luminescence, 48 h; activity, negative = less viability: at 46.1 µM (top of the series) unless noted;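 also: NT is the 2HG producing partner of a matched IDH1 knockdown line; nearly all actives have a fitted effect of over 55% in size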;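 as to activity, negative = less viability: 0% = DMSO-treated cells and -100% = media-only wells without cells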
Method in brief: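 750 cells/well, RPMI + 5% FBS; 2 h settle, compound pin-transfer, 48 h at 37 degrees C. CellTiter-Glo 10 min RT, luminescence. Normalized to DMSO and media-only wells.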
Potency is read from the fitted curve at half-maximal effect; tags tell the direction and shape of the fitted curve.

| SMILES | Potency | activity, negative = less viability |
| --- | --- | --- |
| COC(=O)c1ccccc1NC(=O)c1cccc(COc2ccccc2Cl)c1 | inconclusive [cytotoxic, partial curve] |  |
| Cc1ccc(Cl)cc1N(CC(=O)NC(C)c1ccccc1)S(C)(=O)=O (stereo not given) |  | inconclusive: -30.5% [cytotoxic] |
| C/C(CC(C)(C)C1CCCCC1)=N\NC(N)=S | active: 5.01 µM |  |
| Cn1c(SCc2ccccc2)nnc1-c1c[nH]c2ccccc12 |  | inactive: 10% |
| COc1ccc(C(=O)Cn2nnc(-c3ccccc3NC(=O)C3CCCCC3)n2)cc1 |  | inactive: -0.307% |
| CCN(CC)c1ccc(-c2c(C#N)c(N)nc(OC)c2C#N)cc1 | inconclusive [cytotoxic, single point] |  |
| Cc1cc(C)c2c(CCl)cc(=O)oc2c1 | inconclusive [cytotoxic, full curve] |  |
| CC(=O)c1ccc(-n2c(CCC(=O)O)ccc2-c2cccs2)cc1 |  | inconclusive: -31.8% [cytotoxic] |
| CCn1cc(C(=O)NCc2cccc(F)c2)c(=O)c2cc(F)c(N3CCN(C(=O)c4ccco4)CC3)cc21 | active: 13 µM |  |
| CCOc1ncccc1C(=O)OC(C)C(=O)Nc1ccc(Cl)cn1 (stereo not given) |  | inactive: 3.59% |
| Cn1cc(/C=C(\C#N)C(=O)Nc2cccc([N+](=O)[O-])c2)c2ccccc21 |  | inactive: 14.3% |
| CCNC(=S)N1CCCC(C(N)=O)C1 (stereo not given) |  | inactive: 9.82% |
| COc1cc(OC)cc(C(=O)NCC(=O)NCc2ccccn2)c1 |  | inactive: 1.65% [at 9.24 µM] |
| CC(C)COc1ccc(C(=O)Nc2sc3c(c2C(=O)O)CC(C)(C)OC3)cc1 | inconclusive [cytotoxic, partial curve] |  |
| O=C(Nc1ccc(F)cc1)c1cc(S(=O)(=O)Nc2ccc(F)cc2)cs1 | inconclusive [cytotoxic, single point] |  |
| Cc1cc(C)cc(SCc2noc(C(=O)NCCN(C)C)c2C(=O)NCCN(C)C)c1 | active: 18.4 µM |  |
| CC(C)COc1ccc(C(=O)OCCN2CCCCC2)cc1 | inconclusive [cytotoxic, partial curve] |  |
| CC(Nc1nc(N2CCOCC2)nc2ccccc12)c1ccccc1 (stereo not given) | inconclusive [cytotoxic, single point] |  |
| Cc1cc(CNCCN(C)C)c(C)n1-c1cc(S(=O)(=O)N2CCOCC2)ccc1N1CCCC1 |  | inactive: -13.5% |
| COc1cc(C(c2c(C)[nH][nH]c2=O)c2c(C)[nH][nH]c2=O)ccc1OC(=O)c1cccc([N+](=O)[O-])c1 |  | inactive: 8.72% |
| CCOC(=O)c1c(NC(=O)CSc2nnnn2C)sc(C)c1-c1ccc(C)cc1 | inconclusive [cytotoxic, single point] |  |
| CC(=O)C1=C(c2ccccc2)NC(=S)NC1c1cc(Cl)c(OC(C)C)c(Cl)c1 (stereo not given) | inconclusive [cytotoxic, single point] |  |
| Cc1ccccc1-c1cc(-c2ccccc2O)n[nH]1 | inconclusive [cytotoxic, single point] |  |

| SMILES | Potency | activity, negative = less viability |
| --- | --- | --- |
| CC(=O)Nc1ccc(S(=O)(=O)N2CCN=C2SCc2ccc([N+](=O)[O-])cc2)cc1 | inconclusive [cytotoxic, partial curve] |  |
| CC(=O)Nc1ccc(OCC(O)Cn2c(CO)nc3ccccc32)cc1 (stereo not given) |  | inconclusive: 36.1% |
| COc1cc2[nH]c(=S)nc(NC3CCCCCC3)c2cc1OC | inconclusive [cytotoxic, single point] |  |
| Cc1cc(Br)cn2c(Cc3cccc(F)c3)c(C3CCCCC3)nc12 | inconclusive [cytotoxic, single point] |  |
| O=C(c1ccccc1)c1c[nH]c(C(=O)C(Cl)(Cl)Cl)c1 |  | inactive: -11.8% |
| Cc1cc(NCCCCCCCNc2cc(C)nc3cc([N+](=O)[O-])ccc23)c2ccc([N+](=O)[O-])cc2n1 | inconclusive [cytotoxic, single point] |  |
| CCOc1ccc(Cl)cc1-c1cc(C(=O)NCC2CCCCC2)[nH]n1 |  | inactive: 0% |
| COc1ccc(-c2nc3ccccn3c2CN2CCN(c3ccccc3F)CC2)cc1 | inconclusive [cytotoxic, single point] |  |
| COc1cc(C(=O)Nc2ccc3nc(N4CCN(C)CC4)cc(C)c3c2)cc(OC)c1OC | inconclusive [cytotoxic, single point] |  |
| COc1cc2c3c(c1)C(C)=CC(C)(C)N3C(=O)C2=O | active: 10.3 µM |  |
| COc1ccc(NC(=O)COC(=O)/C=C/c2ccc(OC)c(S(=O)(=O)N3CCOCC3)c2)cc1 | inconclusive [cytotoxic, single point] |  |
| COc1ccc(C(=O)NCCNc2nc3cc(C)cc(C)c3cc2C#N)cc1 | inconclusive [cytotoxic, single point] |  |
| COc1ccc2cc(/C=N/NC(=O)c3ccc(CN(c4cccc(Cl)c4Cl)S(C)(=O)=O)cc3)c(Cl)nc2c1 | inconclusive [cytotoxic, full curve] |  |
| COc1ccc(-n2c(-c3ccc(Br)cc3)c[n+]3c2CCc2ccccc2-3)cc1 | inconclusive [cytotoxic, single point] |  |
| CC(C)(C)NNC(=S)Nc1cccc(F)c1 | active: 2.91 µM |  |
| Cc1cc(=O)[nH]c2c(N=Nc3ccc(O)cc3)c(N)nn12 | inconclusive [cytotoxic, partial curve] |  |
| O=C(/C=C/c1ccc(Cl)cc1Cl)c1cccnc1 | inconclusive [cytotoxic, single point] |  |
| COc1cc(C)c(CN2CCN(C(=O)CCC(=O)c3ccc(C)s3)CC2)cc1OC |  | inactive: 0.481% |
| CC(C)(C)c1ccc(N/N=C(\C#N)S(=O)(=O)C(C)(C)C)cc1 | active: 23.1 µM |  |
| COc1ccc(/C=N/OCC(=O)N=Nc2c(O)[nH]c3ccc(Br)cc23)cc1OC | inconclusive [cytotoxic, single point] |  |
| Cc1ccc(C(=O)Nc2ccc(Oc3ccc(C(=O)O)c(C(=O)O)c3)cc2)cc1C |  | inactive: 3.45% |
| COc1ccc(N=Cc2c(O)c3ccccc3oc2=O)cc1 | inconclusive [cytotoxic, single point] |  |
